ChEMBL document CHEMBL4888484, “Replenishing the malaria drug discovery pipeline: Screening and hit evaluation of the MMV Hit Generation Library 1 (HGL1) against asexual blood stage Plasmodium falciparum ,using a nano luciferase reporter read-out” (2022)
About 540 (0.36%) of roughly 150,000 compounds showed an effect of 50% or more. Some of the results follow.

What follows are compounds tested on Plasmodium falciparum (assay: Primary screen in NF54 nanoGlo assay, in single point, at 2uM, 72h; a lower Z score goes with more inhibition). Details: timepoint 72 hour.
Format: functional, Erythrocyte

Row | SMILES | % Inhibition [%] | Z score
1 | CCc1nn(-c2ccccc2)c2c1CN(C(=O)NCCC(C)C)[C@H](c1ccc(C)cc1)c1cccn1-2 | -8 | 1.54
2 | O=c1scc(C(F)(F)F)n1CN1CCN(c2cccc(Cl)c2)CC1 | 2 | -0.34
3 | Cn1c(CNC(=O)C2CCC2)nc2c1CN(C(=O)Nc1ccc(C(F)(F)F)cc1)CC2 | -4 | 0.52
4 | COCCc1noc(CN2C[C@@H]3CC[C@H]2CN(C(=O)c2ccccc2)C3)n1 | -12 | 1.7
5 | CC(O)CNC(c1ccc(Br)cc1)C1CCOCC1 (stereo not drawn) | -11 | 1.16
6 | C/C=C(\C)CN1CCC2(CC1)c1ccccc1[C@@H](NC(=O)c1cccc(F)c1)[C@@H]2OC | -8 | 0.98
7 | Cc1nn(C)c(S(=O)(=O)N2CCc3cnccc32)c1C(F)F | -2 | 0.23
8 | CC(C)(C)N1CC[C@H]1C(=O)NC1(c2ncccn2)CCOCC1 | 0 | -0.01
9 | CCCC(CCc1ccccc1)NC(=O)NC1CCN(C)C1=O (stereo not drawn) | -5 | 0.83
10 | Brc1ccc(NCc2[nH]nnc2-c2ccccc2)cc1 | 39 | -1.35
11 | Cc1cc2c(NCC3(CCO)CC3)nccn2n1 | -8 | 1.23
12 | COc1ccc(CCNC(=O)c2cc(OCc3ccccc3)no2)cc1 | -10 | 1.95
13 | Cn1cc(C(=O)N2CC[C@H](N3CCOCC3)[C@H](CCCO)C2)c2ccccc21 | -2 | 0.4
14 | Cc1nc2ccccn2c(=O)c1CCN[C@@H](C)c1cccc(-n2cccn2)c1 | 0 | 0.05
15 | Cc1cccc(CCNC(=O)N2CCN(c3nccnc3C#N)C[C@@H]2C)n1 | -13 | 1.38
16 | Fc1ccc(N2CCN(Cc3nc4c(s3)CCC4)CC2)cc1 | 0 | -0.03
17 | Cc1cccc(N2CCN(C(=O)CCC3=Nc4cc(C(F)(F)F)ccc4S(=O)(=O)N3)CC2)c1C | 36 | -4.07
18 | O=C(NC[C@H](O)c1c(Cl)cccc1Cl)c1cnn2ccncc12 | 3 | -0.33
19 | O=C(c1ccc2nsnc2c1)N1CCc2oncc2C1 | -10 | 1.56
20 | COc1ccc(OC)c2sc(N3CCN(C(=O)c4cc(C)on4)CC3)nc12 | -3 | 0.39
21 | CN(C)c1ncc(C=Cc2ncc(C(=O)O)s2)n1C | 5 | -0.5
22 | COC(=O)C1=C(C)OC(=O)[C@]1(NC(=O)c1ccc(Cl)cc1Cl)C(F)(F)F | -7 | 1.02
23 | Cc1cncc(OCc2ccccc2C)n1 | 6 | -1.18
24 | OCCn1ncnc1Cc1cc(F)cc(Cl)c1 | -5 | 0.53
25 | Cc1ccc(NC(=O)N2CCC[C@@]3(CCOC3)C2)cc1 | -3 | 0.31
26 | Cc1cc(NC(=O)CON=C(N)Cc2ccccc2Cl)no1 | -3 | 0.46
27 | CC(=O)Nc1ccc(S(=O)(=O)N2CCc3c(c(CN(C(C)=O)c4ccccc4)nn3C)C2)cc1 | -14 | 2.45

Row | SMILES | % Inhibition [%] | Z score
28 | COCCn1cnnc1CNC(=O)Cc1cccs1 | -4 | 0.8
29 | C(=Cc1ccnn1CC1CC1)c1nccs1 | 17 | -2.22
30 | O=C(c1ccccc1)c1ccc2n1CC[C@H]2C(=O)Nc1cccc(Cl)c1F | -1 | 0.17
31 | CCN1CC2(CCN(Cc3cc(C)no3)CC2)C[C@@H](c2ccccc2)C1=O | -5 | 0.7
32 | CCCN1CCC(NC(=O)c2cn(Cc3c(F)cccc3F)nn2)CC1 | 0 | -0.02
33 | Cc1cc(C)cc(N2CCC(N3CCn4nc(C(=O)O)cc4C3)CC2)c1 | -7 | 0.94
34 | CCn1c(-c2cc(NC(=O)CCc3ccccc3)[nH]n2)cc2ccccc21 | 3 | -0.41
35 | O=C(N[C@H](c1ccccc1)C1CC1)N1CCN(S(=O)(=O)c2cccc(F)c2)CC1 | 36 | -4.7
36 | COCCCn1ccnc1-c1ccc2nonc2c1 | 2 | -0.27
37 | Cc1nnc(C)c2c(C)n(-c3ccc4c(c3)OCO4)c(C)c12 | -6 | 0.92
38 | COc1ccc(CCNC(=O)c2noc(C)c2CN2CCOCC2)cc1OC | -22 | 2.25
39 | COc1cccc(C)c1C(=O)N1CCCNC(=O)C1 | -16 | 2.02
40 | COCC(=O)N1CCC(COc2ncnc(C)c2C)CC1 | -11 | 1.23
41 | C[C@H](NC(=O)NCc1ncnn1C)c1cc(F)c(F)c(F)c1 | -5 | 0.74
42 | Cc1ccn(CCC(=O)NCc2ccc3c(c2)OCO3)n1 | -2 | 0.19
43 | OCC1CN(c2nc3cc(F)ccc3o2)C1 | -11 | 0.92
44 | Cc1cccc(-n2cnc3cc(C(=O)N4CCO[C@H](C)[C@H]4C(N)=O)ccc32)c1 | 4 | -0.61
45 | CCOCCn1c(=O)n(Cc2cn(C)nc2C)c2cc(C(=O)OC)cnc21 | -10 | 1.55
46 | CCCN(CC(=O)NC)S(=O)(=O)c1c(Cl)cc(C)c(O)c1C | -9 | 1.7
47 | COc1ccc(-c2ccc(N3CCCN(C(=O)CN(C(=O)c4cccc(OC)c4)C(C)C)CC3)nn2)cc1 | 10 | -1.38
48 | Cc1ccc(OCCC(=O)N2CCC[C@H]2c2ccon2)cc1C | -10 | 1.34
49 | CCN(Cc1ccc(C)o1)Cc1[nH]cc(C)c(=O)c1C | -13 | 1.38
50 | CCc1ccc([C@@H]2COCCN2c2c(C#N)c(=O)n(C)c(=O)n2C)o1 | -1 | 0.08
51 | COc1cc(NC(=O)C(c2ccccc2)c2ccccc2)ccc1NC(=O)c1ccccc1Cl | -10 | 1.26
52 | CC1(C)CCC(Nc2ccc(C(N)=O)nn2)CC1 | 77 | -11.08
53 | CCNc1ncc(C(=O)N2CCCN(C(=O)[C@@H]3CCCO3)CC2)cn1 | -2 | 0.4
54 | COc1cccc(C(C)NCC2CN(C(=O)c3ccccc3)C3CCN2C3)c1 (stereo not drawn) | -7 | 0.75
